Reference: PubChem BioAssay AID1645882 (National Center for Advancing Translational Sciences (NCATS), 2021)
Out of some 16,000 compounds screened, about 120 (0.75%) were called active. Inconclusive results (about 4%) are left out. The call rests on the fitted dose curve; in most records, active means well fitted inhibition curve with a large enough effect; inconclusive means small, poorly fitted or top-dose-only effect; inactive means no such curve, though single readings can be large or run the other way. The list shows a part of the results.

Each molecule was assayed against Rap guanine nucleotide exchange factor 3 (Homo sapiens) (UniProt O95398) (assay: Validation qHTS for antagonist of cAMP-regulated guanine nucleotide exchange factor 3 (EPAC1)). Settings: EPAC1 Rap1B-BODIPY-GDP exchange, fluorescence; series mostly up to 150 µM; activity change, negative = inhibition: at the top concentration.
Chain of UniProt O95398 (O95398 whole entry, looked up): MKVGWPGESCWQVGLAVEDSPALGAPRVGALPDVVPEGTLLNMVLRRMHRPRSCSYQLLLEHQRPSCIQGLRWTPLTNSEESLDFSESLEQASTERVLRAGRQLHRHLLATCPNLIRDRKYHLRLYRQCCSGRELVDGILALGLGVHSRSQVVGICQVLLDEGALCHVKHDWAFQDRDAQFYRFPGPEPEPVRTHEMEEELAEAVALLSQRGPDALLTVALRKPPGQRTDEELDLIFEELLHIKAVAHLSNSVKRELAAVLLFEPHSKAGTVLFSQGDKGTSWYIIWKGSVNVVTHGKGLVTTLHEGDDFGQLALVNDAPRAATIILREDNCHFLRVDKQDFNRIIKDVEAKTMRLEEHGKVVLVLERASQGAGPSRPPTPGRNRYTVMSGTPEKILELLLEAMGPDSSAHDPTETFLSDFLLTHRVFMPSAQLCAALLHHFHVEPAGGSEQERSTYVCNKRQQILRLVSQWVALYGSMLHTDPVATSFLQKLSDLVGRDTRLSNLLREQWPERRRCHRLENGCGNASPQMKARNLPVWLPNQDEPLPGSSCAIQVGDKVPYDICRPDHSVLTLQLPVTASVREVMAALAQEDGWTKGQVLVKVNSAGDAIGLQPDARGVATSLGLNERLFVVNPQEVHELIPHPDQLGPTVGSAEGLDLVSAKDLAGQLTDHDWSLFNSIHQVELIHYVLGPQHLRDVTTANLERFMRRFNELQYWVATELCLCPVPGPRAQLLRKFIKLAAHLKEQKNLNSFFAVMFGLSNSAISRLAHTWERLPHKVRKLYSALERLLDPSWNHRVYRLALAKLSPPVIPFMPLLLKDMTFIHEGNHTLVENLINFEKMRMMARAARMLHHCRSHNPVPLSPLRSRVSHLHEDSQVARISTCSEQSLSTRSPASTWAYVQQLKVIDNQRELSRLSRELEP
Method in brief: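 Nucleotide exchange followed as fluorescence loss when BODIPY-GDP leaves Rap1B (480 nm excitation, 540 nm emission), read at 5 min intervals over 30 min. Reaction: 100 nM EPAC1, 250 nM RAP1B-BODIPY-GDP, 50 uM GDP; ATA and DMSO define normalization.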
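Further: plate controls were DMSO for no effect and ATA control for full effect; nearly all actives have a fitted effect of over 75% in size.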

Activity change, negative = inhibition, inactive:
O=C1CCC[C@@H]2C[C@@]3(C[C@@H]4CCN1[C@H]24)Nc1cc([N+](=O)[O-])ccc1NC3=NC1CCCCC1 2.38%
Cc1nc(C)c(CC(=O)N2CCOc3ccc(CN4CCOCC4)cc3C2)s1 15.1%
Cn1c(C(c2cc3ccccc3n2C)c2cc3ccccc3n2C)cc2ccccc21 -25.8%
CCOC(=O)OCC/C(SC(=O)OCC)=C(\C)N(C=O)Cc1cnc(C)nc1N 12%
C[C@H](N)[C@H](O)c1cccc(O)c1 12% [at 75.8 µM]
COc1ccc(C(=O)/C(Br)=C\C(=O)O)cc1 14.6%
COC(=O)c1ccccc1NC(=O)c1ccc(F)cc1 6.74%
COc1cccc(-c2ccc3ncnc(N4CCOCC4)c3c2)c1 1.91%
CC(=O)[C@@]1(O)CC[C@H]2[C@@H]3C[C@H](C)C4=CC(=O)CC[C@]4(C)[C@H]3CC[C@@]21C 15.6%
O=C(CO)[C@@H](O)[C@H](O)[C@H](O)CO 25.1%
CN=C(NC#N)Nc1ccc(C2=NNC(=O)CC2C)cc1 (stereo unspecified)
NCC1O[C@@H](O[C@H]2C(O)C(O[C@@H]3C(O[C@H]4OC(CO)C(O)C(O)C4N)C(N)CC(N)[C@H]3O)O[C@@H]2CO)C(N)C(O)C1O (stereo partly specified) 20.7%
COc1ccc(NC(=O)N2CC3(CCN(C(=O)c4ccco4)CC3)C2)cc1 -3.89%
O=c1cnc2cnc(Oc3cccc(Cl)c3)nc2n1CCc1ccccc1 -9.86%
Cc1ccc(CN2[C@@H](Cc3ccccc3)C(=O)CS2(=O)=O)cc1 -19.9%
COc1ccc2[nH]cc(CCNc3ccnc(-c4cccnc4)n3)c2c1 0.931%
COc1ccc(C(=O)N2CCC3(CCCN(C(=O)Nc4cccc(C#N)c4)C3)CC2)cc1 8.66%
Cc1ccccc1OCC(O)CO (stereo unspecified) 26.6%
CCCCCCCCCCCCCCCCCCc1ccc(C(=O)/C=C\C(=O)O)cc1 11.4%
S=c1ccss1 21.3%
CC1=C(CC(=O)O)c2cc(F)ccc2/C1=C\c1ccc(S(C)(=O)=O)cc1 -2.16% [at 75.8 µM]
N[C@H](C(=O)O)c1ccc(C(=O)O)cc1
NC(N)=NC(=O)c1nc(Cl)c(N2CCCCCC2)nc1N 8.17% [at 75.8 µM]
COC(=O)CC1[C@@]2(C)C[C@@]34OC5(C)OC6(CC[C@@]7(C)C(c8ccoc8)OC(=O)C(C(C)=O)C7[C@]6(O5)C(O)[C@@]3(O)C2O)[C@]14C (stereo partly specified) 29.5%
CS(=O)(=O)c1ccc(-c2cc(Br)sc2-c2ccc(F)cc2)cc1 -3.98%
c1ccc2c(c1)CN1CCCC1=N2
O=C1CN(/N=C/c2ccc([N+](=O)[O-])o2)C(=O)N1
CC(C)C[C@@H](CSc1ccccc1)N1CCN(CCc2ccccc2)CCC1=O -9.65%
CC(O)(COc1ccccc1)c1ccc2c(c1)CN(Cc1cccc3ncccc13)CCO2 (stereo unspecified) -4.96%
CC(C)=CCC/C(C)=C/CC/C(C)=C/CO
Cc1nc2sccn2c(=O)c1CCN1CCC(=C(c2ccccc2)c2ccc(F)cc2)CC1 5.28% [at 75.8 µM]
CC(=O)N1CCC[C@@]2(CCN(Cc3ccc(C#N)cc3)C2)C1 16.2%
CC(C)(C)C1CCC(=O)N(CCOc2ccccc2)CC1 (stereo unspecified) -19.7%
Cc1c(C(=O)O)c(O)cc2c1C(=O)c1c(O)c([C@@H]3O[C@H](CO)[C@@H](O)[C@H](O)[C@H]3O)c(O)c(O)c1C2=O 7.12%
COc1c(-c2ccccc2)oc2c(ccc3occc32)c1=O -22.7%
Cc1ccc(CN2[C@@H](CC3CCCCC3)COCCS2(=O)=O)cc1 8.27%
Cc1cc(C)c2nccc(/C=C/c3ccc(N(C)C)cc3)c2c1 20.2%
COc1ccc(C(=O)N2CCC[C@@]3(CCN(C(=O)Nc4cccc(C#N)c4)C3)C2)cc1 22%
O=C1C[C@@H]2c3c(cccc3CN1Cc1ccccc1)C[C@@H](O)[C@H]2O 5.54%
NC(=NCCCCCCN=C(N)/N=C(\N)Nc1ccc(Cl)cc1)/N=C(\N)Nc1ccc(Cl)cc1
CC(C)(C)C(=O)C(Oc1ccc(Cl)cc1)n1ccnc1 (stereo unspecified) -0.509%
C1=C(CN2CCOCC2)COc2c1cccc2OC[C@@H]1CNCCO1 -7.68%
Oc1cc(O)cc(O)c1 25.1%
O=S(=O)(c1ccccc1)N1CCC2(CCCN(c3ncccn3)C2)CC1 -10.3%
COc1ccc(NC(=O)N2CC3(CCN(C(=O)c4csnn4)CC3)C2)cc1 5.55%
CCCC[C@H]1COCCS(=O)(=O)N1Cc1cccc([N+](=O)[O-])c1 -3.84%
Nc1ncnc2c1ncn2[C@@H]1O[C@H](COP(=O)(O)OP(=O)(O)O)[C@@H](O)[C@H]1O
CC1CCC(C(C)C)[C@H](OC(=O)c2ccccc2)C1 (stereo partly specified) 5.08%
c1csc(CNc2ncnc3ccc(-c4ccc5c(c4)OCO5)cc23)c1 17.5%
O=c1cc(-c2ccccc2)oc2cc(O)cc(O)c12
CC1CN(CCC(=O)NC(c2cccnc2)C(F)(F)F)Cc2cc(Cl)ccc2O1 (stereo unspecified) -12.1%
CCOC(=O)C[C@H]1c2cc(F)ccc2S(=O)(=O)N1C1CCCC1 10.4%
CCN(Cc1ccncc1)Cc1ccc2c(c1)CN(C(=O)c1cccc3c(C)c(C)[nH]c13)CCO2 10.4%
Cc1oc(-c2cccc(NC(=O)C3CCCN(C)C3)c2)nc1CNC(=O)c1coc2c1C(=O)CCC2 (stereo unspecified) -4.08%
CCCCC(CC)COC(=O)C(C#N)=C(c1ccccc1)c1ccccc1 (stereo unspecified) -6.26%
Nc1c2c(nc3ccccc13)CCCC2
CN(C)C(=O)c1ccc(-c2ccc3ncnc(N(C)Cc4ccco4)c3c2)cc1 11.8%
COc1ncc2nc(-c3ccc(Cl)cc3)c(=O)n(C)c2n1 12.5%
CC(=O)c1c(O)c(C)c(O)c2c1OC1=CC(=O)C(C(C)=O)C(=O)[C@@]12C (stereo partly specified) 11.3%
CC(C)(C)C(=O)OCC(=O)[C@H]1CC[C@H]2[C@@H]3CCC4=CC(=O)CC[C@]4(C)[C@H]3CC[C@]12C 6.25%
COc1ccc(CN2CCC3(CC2)c2ccccc2[C@@H](NC(=O)c2ccccc2OC)[C@@H]3O)cc1O 6.91%
O=c1c(-c2cc(F)cc(F)c2)nc2cnc(N3CCOCC3)nc2n1-c1ccccc1 12.4%
CN(C)c1ccc(/C=C/c2ccnc3ccccc23)cc1Cl -3.26%
C/C(=C(\CCOP(=O)(O)O)SC(=O)c1ccccc1)N(C=O)Cc1cnc(C)nc1N 4.24% [at 75.8 µM]
O=C1CCC[C@@H]2[C@@H](Cc3ccccc3)[C@@H](Nc3ccccc3)C[C@@H]3CCN1[C@@H]32 -1.4%
CC(=O)SC1CC2=CC(=O)CC[C@]2(C)C2CC[C@@]3(C)C(CC[C@@]34CCC(=O)O4)C12 (stereo partly specified) 15.8% [at 75.8 µM]
CCN(CC)C(=S)SSC(=S)N(CC)CC
CN1CCN(c2ncnc3ccc(-c4cccc(C#N)c4)cc23)CC1 0.851%
O=c1cnc2cnc(Nc3ccccc3)nc2n1Cc1ccc(F)cc1 11.9%
O=S(=O)(c1ccccc1)N1CCC2(CCCN(c3ccccc3)C2)CC1 5.08%
COc1cccc(CN2CCCC(c3nc(-c4ccncc4)ncc3-c3ccccc3C)C2)c1O (stereo unspecified) -0.271%
Cc1cc2nc3ccc(=[N+](C)C)cc-3sc2cc1N -6.65%
CCCCCCc1ccc(N2C[C@H](CCCCC)[C@@H](CC(=O)NCc3ccc(OC)cc3)C2=O)cc1 -9.97%
O=C(O)[C@@H]1CSCN1 9.59%
C=C[C@@]1(C)CC(=O)[C@]2(O)[C@@]3(C)[C@@H](O)CCC(C)(C)[C@@H]3[C@H](O)[C@H](OC(C)=O)[C@@]2(C)O1 2.77%
CCCCC/C=C\C\C=C/C=C/C=C/[C@@H](SC[C@H](N)C(=O)NCC(=O)O)[C@@H](O)CCCC(=O)O 25.7% [at 1.57 µM]
CCC1CN(CCNC(=O)c2cn3cc(C)ccc3n2)Cc2cc(OC)ccc2O1 (stereo unspecified) 4.21%
Nc1ccn([C@@H]2O[C@H](CO)[C@@H](O)C2O)c(=O)n1 (stereo partly specified)
COc1cc(OC)c2c(=O)c(-c3ccccc3)coc2c1 -10.8%
CN1CCN(c2ccnc(-c3ccoc3)n2)CC1 -16.5%
COCC(=O)N1CCC2(CC1)CN(c1ccccn1)C2 9.53%
COC(=O)c1cccc(C(=O)N2CCc3c(cnc(C)c3CNC(=O)/C=C/c3cccs3)C2)c1 1.87%
CCN(CC)CCOc1ccc2c(c1)C(=O)c1cc(OCCN(CC)CC)ccc1-2 15.2%
COc1ccccc1-c1nccc(NC2CCNCC2)n1 -0.32%
CC/C(=C\c1ccc(C(=O)OC)cc1)c1cc(OC)cc2oc3ccccc3c12 10.7%
CCS(=O)(=O)NCc1c(C)ncc2c1CCN(C(=O)c1csc(-c3cccs3)n1)C2 6.79%
Oc1ccc(Cn2cc[nH]c2=S)cc1 5.13% [at 75.8 µM]
C=C[C@H](CC(C)C)N(Cc1ccccc1)S(=O)(=O)N(Cc1ccccc1)[C@@H](C=C)CC(C)C 0.32%
COc1ccc(-c2ccnc(-n3ncc(C(=O)NC(C)(C)CO)c3C3CC3)n2)cc1F 5.31%
CC(=O)N1CCC2(CC1)CCN(c1ccccc1)CC2 12.3%
CNc1nc(-c2ccccc2OC)nc2ccccc12 22.8%
OCC(O)CO 13.7%
CC(C)C[C@H](NC(=O)C1OC1C(=O)O)C(=O)NCCCCN=C(N)N (stereo partly specified) -11.1% [at 75.8 µM]
COc1ccccc1N1CCN(CCN(C(=O)c2ccc(F)cc2)c2ccccn2)CC1 -4.64% [at 75.8 µM]
c1ccc(-c2ccccn2)nc1 -8.53% [at 75.8 µM]
CC1(C)O[C@@H]2C[C@H]3[C@@H]4CCC5=CC(=O)C=C[C@]5(C)[C@H]4[C@@H](O)C[C@]3(C)[C@]2(C(=O)CO)O1 23.5%
Cc1ccnc(N)c1 8.88%
O=C(CCN1CCN(CCO)CC1)N1c2ccccc2Sc2ccc(C(F)(F)F)cc21 5.8%
COc1cc(-c2noc(C)c2C(=O)NCCc2c[nH]c3ccccc23)cc(OC)c1OC -1.29%
Cc1ccc(NC(=O)c2cccc(N(C)C)c2)cc1NC(=O)c1ccc(O)cc1
C[C@]12C[C@H](O)[C@H]3[C@@H](CCC4=CC(=O)CC[C@@]43C)[C@@H]1CC[C@@H]2C(=O)CO
